The source of these data is ChEMBL document CHEMBL4888484, “Replenishing the malaria drug discovery pipeline: Screening and hit evaluation of the MMV Hit Generation Library 1 (HGL1) against asexual blood stage Plasmodium falciparum ,using a nano luciferase reporter read-out” (2022).

In all, about 150,000 compounds went through this assay and about 540 (0.36%) showed an effect of 50% or more. This is one part of the list.

The subject of the experiment is Plasmodium falciparum. Description: Primary screen in NF54 nanoGlo assay, in single point, at 2uM, 72h; a lower Z score goes with more inhibition. The format is functional, Erythrocyte. Conditions: timepoint 72 hour.
As to `COC(=O)C1=C(C(=O)OC)SC(=C2C(=S)C(C)(C)N(C(=O)CN3C(=O)CCC3=O)c3c(OC)cccc32)S1`, the “% Inhibition” value is recorded as -8% and the Z score was found to be 0.93.

On to `COc1c(Cl)cc(NC(=O)NCC(=O)N(C)C)cc1Cl`, for which the “% Inhibition” value is reported as -6% and the Z score was determined as 0.97.

Turning to `FC(F)(F)C1C2CCC(O2)C1c1nc(Cc2cncs2)no1` (centres undefined), the “% Inhibition” value was -11% and the Z score turned out to be 1.45.

As for `COc1cc(=O)c(C(=O)N2CCCCCC2)nn1-c1ccc(C)cc1`, the “% Inhibition” value came out at 27% and the Z score is -3.92.

Regarding `C[C@@H]1CN(C(=O)CCCc2ccc(O)c(F)c2)CCN(C2CCC2)C1`, the “% Inhibition” value is given as -2% and the Z score was 0.28.

Turning to `CCc1ncnc(NC2CCCCC2C(N)=O)c1F` (centres undefined), the “% Inhibition” value is 5% and the Z score is -0.8.

With `O=S(=O)(c1ccccc1Cl)N1CCC2(CC[C@@H]2O)CC1`, the “% Inhibition” value is listed as 0% and the Z score was 0.04.

As to `O=C(NCc1ccon1)c1cc(=O)[nH]c2cc(F)ccc12`, the “% Inhibition” value is -2% and the Z score stood at 0.23.

Take `CCOC1(c2nc(-c3ccc4cncn4c3)no2)CCCC1`: the “% Inhibition” value is -2% and the Z score was 0.28.

`CC(C)(C)OC(=O)N1[C@@H](CN2CCCC3(C2)OCCO3)COC1(C)C`: the “% Inhibition” value is -12% and the Z score was 1.18.

In the case of `Cc1cnc(C(=O)Nc2ccccc2-c2nc3ccccc3s2)cn1`, the “% Inhibition” value is reported as 2% and the Z score was -0.23.

On to `COCC(=O)N[C@@H]1CC[C@H]2CCOc3ccccc3C(=O)N3CCN(Cc4ccc(Cl)c(F)c4)C[C@H]3C(=O)NC[C@H]1O2`, for which the “% Inhibition” value is listed as -1% and the Z score amounted to 0.19.

As to `Cc1ccc(S(=O)(=O)N2CC(=O)N(c3ccccc3C)[C@](C)(C(=O)NC3CCCC3)C2)cc1`, the “% Inhibition” value is listed as -17% and the Z score is reported as 2.09.

With `CC(C)COC(=O)N1CCC2(CCC(=O)N(CCc3ccccc3)C2)CC1`, the “% Inhibition” value is -6% and the Z score amounted to 1.04.

With `c1ccc2oc(N3CCC(NCCc4cn[nH]c4)CC3)nc2c1`, the “% Inhibition” value is -4% and the Z score is recorded as 0.46.

With `COC1COCCC1CC(=O)Nc1ccc2c(c1)CCC2` (centres undefined), the “% Inhibition” value came to 0% and the Z score is listed as 0.

As to `COCC(=O)n1nc(Nc2ccccc2OC)cc1Nc1ccccc1OC`, the “% Inhibition” value is on record as 7% and the Z score was -1.06.

As to `O=C(c1cc(O)nc2ccccc12)N1CCC[C@H](n2cccn2)C1`, the “% Inhibition” value is recorded as -17% and the Z score was 2.71.

As for `O=C(O)CCc1ccc(-c2ccc(F)cc2)n1NC(=O)c1ccccc1Cl`, the “% Inhibition” value turned out to be 29% and the Z score was -3.33.

On to `CCCn1nc(C)c(Br)c1C`, for which the “% Inhibition” value is -5% and the Z score amounted to 0.5.

As to `COc1ccc(C(=O)NCc2ccc3c(c2)CCN3C(=O)C(C)C)cc1`, the “% Inhibition” value is on record as -12% and the Z score is on record as 1.09.

For the compound `CNS(=O)(=O)c1cc(Br)cnc1N`, the “% Inhibition” value is listed as -12% and the Z score came out at 1.78.

As for `COCC1(C)CCN(C(=O)[C@H]2C[C@@H]2c2ccc(OC)cc2)CC1`, the “% Inhibition” value was -6% and the Z score is listed as 1.25.

As to `CCn1ccnc1CN1CCCn2nc(CNC(=O)N(C)C)cc2C1`, the “% Inhibition” value is recorded as -2% and the Z score worked out at 0.31.

On to `N#CCN1CCN(C(=O)CC2=CCCCC2)CC1`, for which the “% Inhibition” value is -11% and the Z score was 1.44.

In the case of `CCN1CCC(N(C)C(=O)CCc2ccc(O)c(Cl)c2)C(C)C1` (centres undefined), the “% Inhibition” value was 6% and the Z score was -0.54.

Take `O=C1CC[C@@]2(CCCN(C(=O)c3ccccn3)C2)CN1CCc1c[nH]cn1`: the “% Inhibition” value is recorded as -4% and the Z score amounted to 0.75.

Turning to `Cc1cc(C)c(C#N)c(N2CCC[C@H](N3CCOCC3)C2)n1`, the “% Inhibition” value was -15% and the Z score came out at 1.88.

With `O=C(NC1CC1)[C@@H]1COC2(CCN(C(=O)c3ccc4c(c3)OCO4)CC2)N1C(=O)c1ccccc1`, the “% Inhibition” value is -11% and the Z score was 1.58.

With `Cc1cc(C)nc(NCCC(=O)NCC2CCOCC2)n1`, the “% Inhibition” value is given as -8% and the Z score was determined as 0.8.

For the compound `COc1ccc(C2c3cc(Br)cc(C(=O)O)c3NC(c3ccc(Cl)c(Cl)c3)C2C)cc1OC` (centres undefined), the “% Inhibition” value was determined as 34% and the Z score is given as -3.84.

Take `O=C(Nc1cccc(F)c1)N1CCCCC[C@H]1c1ccccc1Cl`: the “% Inhibition” value is 7% and the Z score is given as -0.93.

As to `Cc1cc(C(=O)NC[C@H]2CCCN(c3nccc4cccnc34)C2)ccc1Cl`, the “% Inhibition” value was -7% and the Z score is listed as 1.09.

Consider `COc1ccc(Cc2n[nH]c(=O)n2-c2c(C)noc2C)cc1`, for which the “% Inhibition” value worked out at 5% and the Z score is given as -0.66.

With `COc1cc(=O)[nH]cc1C(=O)N[C@H]1CCCOC1`, the “% Inhibition” value was -9% and the Z score worked out at 1.65.

On to `CN1[C@@H]2CC[C@H]1CN(Cc1ccccc1OCCCCn1ccnc1)CC2`, for which the “% Inhibition” value is -6% and the Z score is reported as 0.69.

With `COc1ccc(N2C(=O)c3ccccc3N[C@@H]2c2cccc3cccnc23)c(OC)c1`, the “% Inhibition” value was -5% and the Z score came out at 0.79.

As to `C[C@@]1(C(=O)NCc2ccccc2)Cn2nc(-c3ccccc3)cc2C(=O)N1CCc1ccc(Cl)cc1`, the “% Inhibition” value is given as -2% and the Z score turned out to be 0.25.

With `CCn1ncc(Cl)c1C(=O)N1CCC[C@H](C(C)(C)C(=O)O)C1`, the “% Inhibition” value is -3% and the Z score came out at 0.52.

Consider `O=c1ncccn1Cc1nc(C2CCCC2)nn1[C@H]1CCS(=O)(=O)C1`, for which the “% Inhibition” value is listed as -15% and the Z score turned out to be 2.9.

For `COc1cc(-c2[nH]cnc2-c2ccccc2)cc2c1OCO2`, the “% Inhibition” value is -6% and the Z score worked out at 0.77.

`Cc1cc(CN(C)C[C@H]2CCCOC2)ccn1`: the “% Inhibition” value is reported as -1% and the Z score worked out at 0.21.
